PubChem BioAssay AID1346428 (National Center for Advancing Translational Sciences (NCATS), 2018)
About 1,200 (2.5%) of roughly 48,000 compounds were called active. About 2% were inconclusive and are not listed.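 Rule for the calls: active = activation of at least 60% and not above a set upper limit (about 1 call in 100 departs from these limits); inconclusive = activation of 40% to 60%, or above that upper limit; inactive = activation under 40%.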 The list shows a part of the results.

Biological target: Probable G-protein coupled receptor 32 (Homo sapiens) (UniProt O75388)
Experiment: qHTS for Agonists of Human Resolvin D1 Receptor DRV1; note: 0% is about no effect
Settings: CHO-K1 GPR32 beta-arrestin PathHunter luminescence, 90 min; at 76.9 µM; hits give high values; zero percent set by DMSO-only wells
Summary of the method: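 Engineered CHO-K1 line co-expressing GPR32-ProLink and EA-beta-arrestin. Compound treatment lasted 90 min at 37 °C. Luminescence was recorded after 1 h with substrate at ambient temperature, relative to DMSO basal wells.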

Chain of UniProt O75388 (O75388 whole entry, looked up): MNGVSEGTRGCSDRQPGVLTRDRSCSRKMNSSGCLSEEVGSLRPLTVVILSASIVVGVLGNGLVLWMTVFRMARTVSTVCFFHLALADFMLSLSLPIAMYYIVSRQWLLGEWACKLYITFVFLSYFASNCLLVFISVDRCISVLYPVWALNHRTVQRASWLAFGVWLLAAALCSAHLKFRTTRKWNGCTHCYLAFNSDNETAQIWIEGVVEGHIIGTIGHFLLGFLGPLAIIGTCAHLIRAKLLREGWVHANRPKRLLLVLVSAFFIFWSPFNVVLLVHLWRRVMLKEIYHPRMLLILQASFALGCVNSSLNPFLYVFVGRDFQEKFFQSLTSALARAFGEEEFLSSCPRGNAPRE

activation, inactive:
CC1CCCN(CCCNC(=O)Cn2ncc3c([nH]c4ccccc43)c2=O)C1 (stereo not drawn) -16.6%, N[C@@H](Cc1cc(I)c(Oc2cc(I)c(O)c(I)c2)c(I)c1)C(=O)O -9.09%, Cc1nc2ccc(S(=O)(=O)NCC(=O)Nc3ccc(F)cc3F)cc2s1 -14.5%, Cc1ccccc1OCCn1c(CCNC(=O)C2CCCCC2)nc2ccccc21 -5.91%, Cc1ccc(S(=O)(=O)N2CCN(Cc3nc4ccc(C)cc4o3)CC2)c(C)c1 -0.481%, COc1cccc(C(=O)Nc2nc(-c3ccc(Br)cc3)ns2)c1 36.5%, CCOC(=O)Cc1ccc(NC(=O)N(Cc2ccc(CC)cc2)Cc2cn[nH]c2-c2ccc(OC)cc2)cc1 -10.7%, COCCCNC(=O)CSC1=Nc2ccccc2C2=NC(CCC(=O)NCc3ccc(OC)cc3)C(=O)N12 (stereo not drawn) 11.8%, CCOC(=O)c1c(C)[nH]c(C)c1S(=O)(=O)N(C)CC(=O)Nc1ccc(C)cc1Br -16.9%, Cc1ccc(-n2c(SCC(=O)N3CCCc4ccccc43)nc3c([nH]c4ccccc43)c2=O)cc1 -27.1%, CCc1ccc(C2=CC(c3c(F)cccc3Cl)n3c(nc4ccccc43)N2)cc1 (stereo not drawn) -8.43%, CCc1ccc(OCCn2c(C3CC(=O)N(Cc4ccc(F)cc4)C3)nc3ccccc32)cc1 (stereo not drawn) -35%, CC(C)(C)C(=O)Nc1ccccc1C(=O)OCc1cc(=O)n2ccsc2n1 -7.17%, Cc1cccc(C)c1NC(=O)Cn1nnc(C(=O)NCc2ccc(F)cc2)c1N -1.76%, Cc1ccccc1CCNC(=O)C1CCN(S(=O)(=O)c2ccc3c(ccn3C)c2)CC1 -4.83%, O=C(NCC1(c2ccccc2)CCCC1)C(=O)Nc1cccc(Br)c1 -6.9%, Cn1nnnc1SCCCNCc1cccc(OCc2ccc(F)cc2)c1 -3.8%, Cn1c(=O)c2c(nc(Oc3ccccc3Cl)n2Cc2ccc(C#N)cc2)n(C)c1=O 1.68%, COc1cc(Nc2ncc3c(n2)CCN(Cc2cccc(C)c2)C3)cc(OC)c1 26.2%, Cc1cccc(N2CCN(C(=O)C3CCN(c4ncnc5c4nc4n5CCCCC4)CC3)CC2C)c1 (stereo not drawn) 12.4%, CCCN(CCC)C(=O)C(Cc1ccccc1)NS(=O)(=O)c1ccc2c(c1)c(=O)n(C)c(=O)n2C (stereo not drawn) -4.07%, CCc1nn(C(C)C(=O)N2CCN(c3ccccc3)CC2)c(=O)c2cc3occc3n12 (stereo not drawn) -22.4%, Cc1oc2c(C)c3oc(=O)c(CC(=O)N4CCCCC4)c(C)c3cc2c1C -3.46%
